In all, about 33,000 sequences were measured (“E-score (-0.5 to 0.5)”: median about -0.01, highest 2% from about 0.26 on). The list shows a part of the results.
Target: Ste12 (UniProt P13574)
Assay: PBM E-score (8-mer binding enrichment) (E-score (-0.5 to 0.5)); higher = stronger / more preferred TF binding; most listed sequences are background and not binding sites
Conditions: protein concentration: 200 nM; construct: GST-DNA-binding domain
Summary of the method: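 The E-score, a modified Wilcoxon-Mann-Whitney statistic, was computed by the Universal PBM Analysis Suite for every ungapped eight-base word pooled with its reverse complement. Scans behind it were normalised with masliner after bound GST-tagged yeast transcription factors were detected with fluorescent anti-GST. The proteins, at about 100-200 nM, had been applied to universal all-10-mer Agilent arrays made double-stranded by primer extension.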

Going from GCTGGAAC to GCACGTGC, the “PBM E-score” value rises from -0.0795 to 0.0433.

Compared with ACACCAAA, GCATTTAC is lower in “PBM E-score” value: 0.169 for the first, -0.0119 for the second.

First: AATAGTTG
Second: CCCGATCC
The “PBM E-score” value of the first is higher: 0.255 for the first, 0.0845 for the second.

Going from CGTCACGC to AAAACAAA, the “PBM E-score” value rises from -0.088 to 0.293.

Compared with AAGCACGA, CACGCCAC is lower in “PBM E-score” value: 0.245 for the first, -0.0829 for the second.

First: CAGAGGTC
Second: GAGGGCGA
The “PBM E-score” value of the first is higher: -0.077 for the first, -0.314 for the second.

First: CTGATTCC
Second: GAGAAATC
The “PBM E-score” value of the first is lower: -0.0344 for the first, 0.143 for the second.

First: ACGTCTCC
Second: GACTCCGA
The “PBM E-score” value of the first is higher: -0.0154 for the first, -0.07 for the second.

First: AATGGGAG
Second: ACGTTGTG
The “PBM E-score” value of the first is higher: 0.021 for the first, -0.0465 for the second.

Compared with CGGCGACA, TGGGTAAA is higher in “PBM E-score” value: -0.0615 for the first, -0.00616 for the second.

First: CCAAACGC
Second: GCACAGCC
The “PBM E-score” value of the first is higher: 0.0717 for the first, -0.0851 for the second.

First: ACCCGATG
Second: TAAAAACA
The “PBM E-score” value of the first is lower: 0.157 for the first, 0.223 for the second.

First: CTTCAGCA
Second: GTCTTGAA
The “PBM E-score” value of the first is lower: -0.061 for the first, 0.117 for the second.

Going from AAGACTAG to AAGCCCGT, the “PBM E-score” value rises from -0.278 to -0.0825.

Going from GCCGACAA to ATCTTTGA, the “PBM E-score” value rises from -0.106 to -0.0467.

First: GATCATGC
Second: AATAGCAG
The “PBM E-score” value of the first is lower: -0.146 for the first, -0.0902 for the second.

Going from AATCGGTG to ATTCTATC, the “PBM E-score” value rises from 0.0398 to 0.0428.

Compared with AGGACACC, CTAGGGTA is higher in “PBM E-score” value: -0.121 for the first, -0.0216 for the second.

Compared with ACCTCGAC, GTTCCAAA is higher in “PBM E-score” value: 0.0356 for the first, 0.256 for the second.

First: GGCATATA
Second: ACCGCTGA
The “PBM E-score” value of the first is higher: 0.155 for the first, 0.0493 for the second.

Compared with AATAAACA, AGGTGGGA is lower in “PBM E-score” value: 0.284 for the first, -0.049 for the second.

First: CAGCTAGC
Second: AGAACAAA
The “PBM E-score” value of the first is lower: -0.0892 for the first, 0.312 for the second.

Going from CGCGCGAG to AATTATAT, the “PBM E-score” value rises from 0.00855 to 0.227.

First: AAAGTGGG
Second: CTGACTGA
The “PBM E-score” value of the first is higher: 0.182 for the first, -0.193 for the second.

First: AATGGACT
Second: AGTCCTGA
The “PBM E-score” value of the first is lower: -0.155 for the first, 0.0671 for the second.

Going from GCTCTATA to CGATCTCC, the “PBM E-score” value rises from -0.139 to -0.108.

Going from TTTAGAAA to CGGTTTAC, the “PBM E-score” value falls from 0.157 to -0.055.

Compared with AAACGTTA, CCAAGGGC is lower in “PBM E-score” value: 0.0762 for the first, -0.139 for the second.

First: ACACCAGA
Second: CGTAACCA
The “PBM E-score” value of the first is higher: 0.0999 for the first, -0.0743 for the second.

First: CCTTCCCC
Second: CGGAACCG
The “PBM E-score” value of the first is higher: 0.045 for the first, 0.0345 for the second.

First: GATACATA
Second: CGCATGTC
The “PBM E-score” value of the first is higher: 0.18 for the first, 0.0488 for the second.

Compared with GACCTGAA, CTAATCTC is lower in “PBM E-score” value: 0.13 for the first, -0.00473 for the second.

Going from TCAGCTAA to CACGAGAG, the “PBM E-score” value rises from -0.169 to -0.0675.

Going from AATGGGAT to AACGATAT, the “PBM E-score” value rises from -0.185 to 0.186.

Compared with CGATGCGC, CGTAAAAG is higher in “PBM E-score” value: -0.0237 for the first, 0.196 for the second.

Compared with CAACTCAA, CTGAGGCA is lower in “PBM E-score” value: 0.186 for the first, 0.0376 for the second.

Compared with GCGTCTGA, AAAATCGA is higher in “PBM E-score” value: 0.0384 for the first, 0.231 for the second.

Going from ATACTATA to AAAATCCG, the “PBM E-score” value rises from 0.00329 to 0.163.

Compared with CGGGGACA, GTTAGTCA is higher in “PBM E-score” value: -0.0346 for the first, 0.0319 for the second.

First: CACGCAAG
Second: ACTGCACC
The “PBM E-score” value of the first is higher: 0.0553 for the first, 0.0378 for the second.

First: CACTAAGC
Second: AGCTTGAT
The “PBM E-score” value of the first is lower: -0.174 for the first, -0.171 for the second.

Going from ATAGCAAG to GCGTCAAC, the “PBM E-score” value falls from 0.168 to -0.0194.

Compared with ATGATGGG, AGTGCCGG is higher in “PBM E-score” value: -0.0865 for the first, 0.0761 for the second.

Going from AACCGTGT to ACGAGACG, the “PBM E-score” value falls from -0.0169 to -0.0742.

First: GTTTGCCA
Second: AAACCCAT
The “PBM E-score” value of the first is lower: 0.0814 for the first, 0.131 for the second.

Compared with CTTAAGAC, CCGCGTAA is higher in “PBM E-score” value: -0.103 for the first, -0.0657 for the second.

Going from ATGCGCTA to CGATCTTA, the “PBM E-score” value falls from -0.0142 to -0.174.

Compared with ACGGTCCT, CGAAGAGC is higher in “PBM E-score” value: -0.222 for the first, -0.118 for the second.

Going from TTACGGAA to TAGTCAAA, the “PBM E-score” value rises from 0.0606 to 0.0766.

Compared with CATTGAGC, GACCCCTA is higher in “PBM E-score” value: -0.204 for the first, -0.194 for the second.

First: GATCGAGC
Second: ACTGTTTC
The “PBM E-score” value of the first is lower: -0.0127 for the first, 0.289 for the second.

First: AGCCCGAC
Second: ACCTATCT
The “PBM E-score” value of the first is higher: -0.0725 for the first, -0.0992 for the second.

Going from CGCGGCAG to CCCACGTC, the “PBM E-score” value falls from 0.22 to -0.0744.

First: GACAAAGC
Second: AATGAGGG
The “PBM E-score” value of the first is higher: -0.0185 for the first, -0.025 for the second.

First: CTTGCACA
Second: CTGCACTC
The “PBM E-score” value of the first is higher: 0.0682 for the first, -0.0811 for the second.

First: AGACCCCG
Second: AGAGCCAT
The “PBM E-score” value of the first is higher: 0.0202 for the first, -0.0204 for the second.

Compared with GCCAGTCC, AAATTTGG is higher in “PBM E-score” value: -0.143 for the first, 0.12 for the second.

First: ATAAGCGC
Second: ATGAGTCC
The “PBM E-score” value of the first is higher: -0.0763 for the first, -0.101 for the second.

Compared with CAGTTCCG, CTTGTCGA is lower in “PBM E-score” value: 0.0673 for the first, -0.0997 for the second.

Compared with ACTGTCCA, CCAAGACG is higher in “PBM E-score” value: -0.231 for the first, -0.0185 for the second.

Compared with CGTCTAAG, AGCTGGTC is lower in “PBM E-score” value: -0.0278 for the first, -0.289 for the second.

First: AACCTATA
Second: CACACAGA
The “PBM E-score” value of the first is higher: 0.105 for the first, 0.0585 for the second.

Going from GTTGTCTA to ATCGACAG, the “PBM E-score” value rises from -0.128 to 0.00964.

Compared with GGAGTAGA, ACGCGTAT is higher in “PBM E-score” value: -0.0759 for the first, 0.17 for the second.

Compared with AGCCTAAG, TATCGATA is higher in “PBM E-score” value: -0.19 for the first, -0.0905 for the second.

First: ACCTGGAT
Second: CCGGATGA
The “PBM E-score” value of the first is lower: -0.275 for the first, 0.0123 for the second.

Going from AAGCGTGA to AGCAAGCC, the “PBM E-score” value falls from -0.00615 to -0.108.

Compared with CTCAGCGA, CCTCGACC is lower in “PBM E-score” value: 0.0458 for the first, 0.0189 for the second.

First: ACTCAAAG
Second: CCACCCGG
The “PBM E-score” value of the first is higher: 0.123 for the first, -0.106 for the second.

Compared with AACAAACT, CAAACGAA is lower in “PBM E-score” value: 0.205 for the first, 0.101 for the second.

Going from ATGAGGTC to AGTGGTCA, the “PBM E-score” value falls from 0.0263 to -0.0643.

Compared with AACAGGTA, AATAGGCC is lower in “PBM E-score” value: -0.0122 for the first, -0.221 for the second.

First: CTAGTGGC
Second: AGACAAAC
The “PBM E-score” value of the first is lower: -0.132 for the first, 0.0684 for the second.

First: CGTCGAAC
Second: CTTTAATA
The “PBM E-score” value of the first is lower: -0.154 for the first, 0.209 for the second.

Going from ACATGCAG to CTACCGAG, the “PBM E-score” value falls from -0.107 to -0.183.

Going from CGGACTAC to CAGCAGGC, the “PBM E-score” value rises from 0.0321 to 0.126.

Going from ACTTAGAG to AGCGCAGG, the “PBM E-score” value rises from -0.223 to -0.221.

First: CGATCACG
Second: CGGCCACG
The “PBM E-score” value of the first is lower: -0.049 for the first, -0.0396 for the second.

Compared with CGCGAAGC, ACAGTCTC is higher in “PBM E-score” value: -0.0448 for the first, -0.0284 for the second.

Going from CAGGATTC to GCACCTTA, the “PBM E-score” value falls from 0.0783 to -0.0909.

Compared with TCCGCTCA, ATTGAAAC is higher in “PBM E-score” value: -0.00775 for the first, 0.398 for the second.

First: GGGTTACA
Second: ACGTATTA
The “PBM E-score” value of the first is lower: 0.0902 for the first, 0.25 for the second.

First: CACTCGTA
Second: GGAATTGA
The “PBM E-score” value of the first is lower: -0.202 for the first, 0.241 for the second.

Going from ACTAATGA to GAGGGTAC, the “PBM E-score” value falls from 0.155 to -0.112.

Going from AGGTGATC to ACGTCCAT, the “PBM E-score” value falls from 0.0177 to -0.15.

Compared with ATCCTACC, CTCGCAGA is higher in “PBM E-score” value: -0.143 for the first, -0.118 for the second.

— the supplement of paper PMC3334620
